Hit rate of the full screen: of about 310,000 compounds, about 14,000 (4.5%) showed an effect of 50% or more. Effects have a minus sign here. Some of the results follow.
What follows are compounds tested against human ether-à-go-go-related gene (hERG) potassium channel (human, UniProt Q12809) (assay: primary screen, population patch clamp on CHO cells stably expressing hERG).
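Further: peak tail current of the secondary pulse compared with the same well before compound.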

Sequence of human ether-à-go-go-related gene (hERG) potassium channel (Q12809 whole entry, looked up): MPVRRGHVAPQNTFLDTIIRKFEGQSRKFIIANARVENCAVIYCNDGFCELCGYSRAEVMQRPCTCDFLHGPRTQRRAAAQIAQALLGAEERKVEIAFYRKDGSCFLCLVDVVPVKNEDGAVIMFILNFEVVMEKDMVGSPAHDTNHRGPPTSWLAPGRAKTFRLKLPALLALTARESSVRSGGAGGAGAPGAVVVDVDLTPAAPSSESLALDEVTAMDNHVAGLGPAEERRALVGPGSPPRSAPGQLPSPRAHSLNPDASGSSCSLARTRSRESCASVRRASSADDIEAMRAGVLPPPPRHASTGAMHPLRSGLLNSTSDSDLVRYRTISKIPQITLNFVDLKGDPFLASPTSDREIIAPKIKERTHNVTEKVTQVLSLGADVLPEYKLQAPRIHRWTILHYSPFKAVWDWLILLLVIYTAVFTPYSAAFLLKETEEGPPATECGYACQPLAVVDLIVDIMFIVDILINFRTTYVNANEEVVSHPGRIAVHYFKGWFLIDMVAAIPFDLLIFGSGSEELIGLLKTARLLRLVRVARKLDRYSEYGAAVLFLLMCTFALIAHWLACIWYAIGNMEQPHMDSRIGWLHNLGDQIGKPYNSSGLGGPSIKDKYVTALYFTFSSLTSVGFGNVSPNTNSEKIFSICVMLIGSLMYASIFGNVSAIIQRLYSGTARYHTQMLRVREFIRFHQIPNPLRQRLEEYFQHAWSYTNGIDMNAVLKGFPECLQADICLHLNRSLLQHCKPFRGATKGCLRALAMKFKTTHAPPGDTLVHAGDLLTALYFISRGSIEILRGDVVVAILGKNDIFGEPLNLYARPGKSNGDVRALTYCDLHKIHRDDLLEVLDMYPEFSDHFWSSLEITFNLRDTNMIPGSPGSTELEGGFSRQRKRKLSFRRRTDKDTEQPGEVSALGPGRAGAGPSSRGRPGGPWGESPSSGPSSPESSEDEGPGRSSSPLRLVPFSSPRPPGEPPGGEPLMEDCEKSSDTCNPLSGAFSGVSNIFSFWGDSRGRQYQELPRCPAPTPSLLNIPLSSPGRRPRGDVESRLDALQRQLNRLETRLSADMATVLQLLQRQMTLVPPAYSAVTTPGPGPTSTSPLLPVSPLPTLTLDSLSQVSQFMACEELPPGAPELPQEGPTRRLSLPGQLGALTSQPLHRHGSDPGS

Compound	hERG current change (%, negative = inhibition) at 10uM [%]
CC(=O)Nc1ccc(NC(=S)NC(=O)c2ccc([N+](=O)[O-])c(C)c2)cc1	21.9
C#CCCC(=O)c1ccccc1/C=[N+](\[O-])c1ccccc1	9.61
O=C(Nc1cccnc1)c1ccc(CN2CCc3ccccc3C2)cc1	8.68
Cn1c(=O)c2c(ncn2CC(=O)N2CCN(C(=O)c3ccco3)CC2)n(C)c1=O	6.48
NC(=O)CC(NC(=O)c1ccccc1)c1ccc(N2CCCCCC2)c([N+](=O)[O-])c1 (stereo not shown)	-28.3
CSc1nc(NCC(C)C)nc(N2CCOCC2)n1	-12.1
Cc1ccc(C2=C/C(=C/c3cccs3)C(=O)O2)cc1	-0.922
COc1cccc(C2C(C#N)=C(C)NC3=C2C(=O)CC(C)(C)C3)c1 (stereo not shown)	-5.17
O=C(CNC(=S)N(CCCN1CCOCC1)Cc1cccs1)NC1CC1	-14
CCOC(=O)N1CCc2c(sc(NC(=O)c3ccc(S(=O)(=O)N4CCCC4)cc3)c2C#N)C1	19.3
CC(Cc1ccsc1)NC(=O)CCc1nnc(COc2ccccc2)o1 (stereo not shown)	4.68
COC(=O)CCC[C@H]1CC2(C[C@H](CCCO[Si](C)(C)C(C)(C)C)N1C(=O)OC(C)(C)C)OCCO2	-0.895
C/C(=N\NC(=O)c1ccc(NS(=O)(=O)c2cccs2)cc1)c1ccc2c(c1)OCO2	11.5
CC(C)c1ccc(S(=O)(=O)N2CCN(C(=O)Cc3ccsc3)CC2)cc1	-13.3
Cn1c(SCC(=O)Nc2ccc(N3CCOCC3)cc2)nnc1-c1ccccc1	-4.09
COc1ccc(CC(=O)NCC2CCCN(Cc3ccccc3Cl)C2)cc1 (stereo not shown)	4.3
Cc1c(Br)c([N+](=O)[O-])nn1CC(=O)NCc1ccccn1	15.5
CCCC(C)NC(=O)Cc1ccccc1 (stereo not shown)	-9.74
COc1ccc(N(CC(=O)NC2CCCCC2)C(=O)c2ccc(C)s2)c(OC)c1	-18.1
Cn1c(=O)oc2cc(S(=O)(=O)N3CCCCC3)ccc21	2.98
O=C(Nc1ccc2oc(-c3ccccc3F)nc2c1)c1cncc(Br)c1	1.02
COc1cccc(N/N=C(\C#N)S(=O)(=O)C(C)(C)C)c1	26.7

Compound	hERG current change (%, negative = inhibition) at 10uM [%]
CCOC(=O)c1ccc(-n2c(=S)sc3c(=O)[nH]c(C)nc32)cc1	10.8
O=C(Nc1cccc(Cl)c1)c1cc(N=Nc2ccc([N+](=O)[O-])cc2Cl)ccc1O	21.5
C=C1c2cc(C)ccc2NC(=O)N1c1ccccc1	2.71
O=C(CCC(=O)N(CC(=O)NC1CCCC1)c1ccc(F)cc1)Nc1nccs1	4.37
CN(C)CCCN(C(=O)c1ccc(S(=O)(=O)N2CCCCCC2)cc1)c1nc2cc3c(cc2s1)OCCO3.Cl	-59.7
COc1ccccc1NCCC#N	12.9
COc1ccc(N2C(=O)CCC(C(=O)O)C2c2ccc(F)cc2)cc1 (stereo not shown)	24.6
CCOC(=O)c1c(C)nn(-c2ccc(NC(=O)c3cccs3)cc2)c1C	16.8
COc1cc(/C=N/NC(=O)CCn2cnc(-c3ccccc3)c2-c2ccccc2)ccc1O	-28.2
N#Cc1ccc(CN2CCN(CC(=O)Nc3ccccc3C(=O)NC3CC3)CC2)cc1	-77.9
O=C(CCCN1C(=O)c2ccccc2C1=O)OC1CSCC1NC(=O)c1ccccc1 (stereo not shown)	-11.3
CCn1c(=O)c(C(=O)CN2CCN(S(=O)(=O)c3ccccc3)CC2)c(N)n(Cc2ccccc2)c1=O	-14.6
CCCc1cc(=O)[nH]c(SCC(=O)NCc2ccc3c(c2)OCO3)n1	-37.9
Cc1onc(-c2c(Cl)cccc2Cl)c1NC(=O)NNc1ccccc1	-4.33
Cc1ccsc1/C=N/NC(=O)Cc1cccn1C	6.25
CCNc1nc(ON=C(C)C)nc(N(C)C)n1	18.1
COc1ccccc1-c1nc2c3ccccc3nc(=S)n2[nH]1	32.7
COc1cccc(/C=N/NC(=O)CNC(=O)COc2cccc(C)c2)c1O	6.02
CCOC(=O)C1=C(COC(=O)/C=C/c2ccc([N+](=O)[O-])cc2)NC(=O)NC1C (stereo not shown)	-44.7
Cc1cc(C)c2c(c1)/C(=N/NC(=S)Nc1ccc(F)cc1)CCC2	6.9
NC(=O)C1CC(=O)N(c2ccc(OCC(=O)Nc3ccc(F)cc3)cc2)C1 (stereo not shown)	15.6
COc1ccc(OC)c(S(=O)(=O)N2CCC(C(=O)NC3CCCCCC3)CC2)c1	9.73

Compound	hERG current change (%, negative = inhibition) at 10uM [%]
C/C(=N\NC(=O)Cn1nc(C)c([N+](=O)[O-])c1C)c1ccco1	26
COc1cc(NC(=O)c2cccs2)c(OC)cc1NC(=O)Cc1ccccc1	5.6
CCCN1C(=O)c2cc(C(=O)NC3CCCCCC3)ccc2C1O (stereo not shown)	6.77
CC1CN(CC(=O)c2c(N)n(Cc3ccccc3)c(=O)n(C)c2=O)CC(C)O1 (stereo not shown)	-3.47
CC(=O)Oc1ccc(-c2cccc(C(=O)NCCCO)c2)cc1	-7.79
Cc1ccc(S(=O)(=O)/N=C(/c2ccc(F)cc2)N2CCCCC2)cc1	-11.1
CC(C)CC(=O)Nc1c2c(nn1-c1ccc(F)cc1)CS(=O)C2 (stereo not shown)	25.8
CCC(=O)c1ccc(N2CCN(C(=O)c3cccc(F)c3)CC2)c(F)c1	-41.6
CC1(C)C(c2ccccc2)=NC(c2ccc(F)cc2)N1O (stereo not shown)	-8.06
CCOc1ccc(CCNC(=O)COC(=O)c2c(C)nn(-c3ccccc3)c2C)cc1OCC	-12.6
CN(C)S(=O)(=O)Oc1ccsc1C(=O)Nc1ccc(Cl)cc1	-33.7
COc1ccc(CCCC(=O)Nc2cc(C)ccc2OC)cc1	-14.2
CC(=O)c1ccc(NC(=O)CN2CCOCC2)cc1.Cl	17
N/C(=N\OC(=O)c1ccc(Cl)cc1Cl)c1ccc(Cl)cc1	7.62
CN1CCN(c2ccc(CNS(=O)(=O)c3ccc(F)cc3Cl)cc2)CC1	-12.7
O=C(NCc1ccccc1)c1ccc(NC(=O)c2ccccc2F)cc1	12.3
CCOC(=O)c1c(CN2CCCCC2)oc2ccc(O)cc12.Cl	-54.3
Cc1nc2c(-c3ccc(F)cc3)c(C)nn2c(C)c1CCC(=O)N1CCN(c2ccccn2)CC1	-69.5
O=C(O)CN1C(=O)c2cccc(Oc3ccc(Cl)cc3)c2C1=O	16
N#Cc1ccc2[nH]cc(CCO)c2c1	24.4
Cc1cc(N)n(-c2ncnc3scc(-c4ccccc4)c23)n1	-12.2
O=S(=O)(NCC1CCCO1)c1cnc(Cl)c(Br)c1 (stereo not shown)	1.2

Compound	hERG current change (%, negative = inhibition) at 10uM [%]
O=C1CCCC2=C1C(c1cccs1)CC(=O)N2c1ccc(F)cc1 (stereo not shown)	-2.06
COC(=O)c1ccc(CNC(=O)CSC2=NCCS2)cc1	7.07
Cc1cc(OCC(=O)OCC(=O)NC2CCCCC2C)ccc1Cl (stereo not shown)	0.466
O=C(c1ccccc1)c1ccccc1	1.26
COc1ccccc1C(=O)N1CCN(Cc2nc(CC3CC3)no2)CC1	9.93
Cc1ccc(NC2CCCN(C(=O)CN3C(=O)c4ccccc4C3=O)C2)cc1C (stereo not shown)	11.5
Cc1sc2ncn(CC(=O)N3CCC(C(N)=O)CC3)c(=O)c2c1S(=O)(=O)N1CC(C)CC(C)C1 (stereo not shown)	26.4
COc1cc(OC)cc(C(=O)NCCCNC(=O)c2cccnc2)c1	7.43
COc1ccccc1C(CNC(=O)CNC(=O)c1ccc(Cl)c(Cl)c1)N1CCCC1 (stereo not shown)	-32.9
N#CC1=C(N)Oc2cc(Nc3ccccc3)ccc2C1c1ccncc1 (stereo not shown)	-15.5
COc1ccc(S(=O)(=O)N2CCCC2c2cccs2)cc1 (stereo not shown)	-0.306
O=C(COC(=O)c1ccc([N+](=O)[O-])s1)Nc1ccc(Cl)cn1	-0.616
CCOC(=O)c1sc(NC(=O)CSc2nc(C)cc(C)c2C#N)c(C#N)c1C	8.19
COc1ccc(S(=O)(=O)Nc2ccc(F)cc2F)cc1C(=O)N1CCOCC1	8.33
COc1ccc(S(=O)(=O)Nc2ccccn2)cc1C(=O)Nc1ccccc1	-2.18
C=CCc1c(C)nc(SC)nc1Nc1ccc(C(C)=O)cc1	-27.9
CCN1CCN(C(=O)CN(CC)S(=O)(=O)c2ccc(F)cc2)CC1	8.19
CC1CCN(c2ccc([N+](=O)[O-])cc2C(N)=O)CC1	-19.4
Cc1ccc(Oc2nc(-c3ccccc3)ncc2S(C)(=O)=O)cc1	11.3
Cc1ccc2nc(-c3ccccc3)cc(C(=O)NCCCn3ccnc3)c2c1	-40.7
COc1ccccc1-n1c(SCC(=O)O)nc2sc3c(c2c1=O)CCC3	14.9
COc1cc(/C=N/OCC(=O)Nc2cc(C)on2)ccc1OCc1ccccc1	26

Source: article PMC4336329 (PLoS ONE, 2015)
